Measured values reported in PubChem BioAssay (NCATS).
Inconclusive means that the source gave no clear call. Such entries were picked first, then a sample of the others. For part of these data: Where the call is inconclusive, the potency comes from a doubtful curve fit. Active and inactive are the calls of the source. Calls come from the whole dose curve; as a rule, active = well fitted curve in the direction sought with a large enough effect; inconclusive = small, poorly fitted or top-dose-only effect, or another doubt; inactive = no such curve, though single readings can be large; an effect the other way counts as inactive or inconclusive.

system: Tov-21-G; assay: Primary qHTS to identify gynecologic anti-cancer compounds using libraries of approved drugs and bioactive compounds (AID 1345084); conditions: Gynecologic cancer cell panel viability, ATPlite luminescence, 48 h; series mostly up to 57.5 µM; activity change, negative = cytotoxicity: at the top concentration; note: nearly all actives have a fitted effect of over 55% in size
Procedure, shortened: (§1)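 In this quantitative HTS, cell killing is estimated from loss of ATP-dependent luciferase light. Cells see five compound concentrations over a 48 h exposure.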
% is set by controls: 0 for no effect and ±100 for the full control effect; potency is the fitted concentration of half-maximal effect; tags give direction and shape of the fitted curve.

Structure (SMILES)	Potency	activity change, negative = cytotoxicity
NC(=O)c1ncn([C@@H]2O[C@H](CO)[C@@H](O)[C@H]2O)n1	inconclusive: 39.8 µM [cytotoxic, single point]	–
COC(=O)CCCCC(CCSS/C(CCO)=C(\C)N(C=O)Cc1cnc(C)nc1N)SC(C)=O (stereo not given)	–	inactive: -3.23%
Cc1ccc(COC(=O)N2CC[C@@H](CNc3ncccn3)[C@@H](F)C2)cc1	–	inactive: 9.87%
COc1cc2c(cc1O)C(c1ccc(O)cc1)C(C)C(C)C2 (stereo not given)	–	inactive: -4.87%
C[C@@H]1O[C@@H](O[C@H]2[C@H](OC(=O)[C@]34CCC(C)(C)C[C@H]3C3=CCC5[C@@]6(C)CC[C@H](O[C@@H]7O[C@H](CO[C@@H]8OC[C@H](O)[C@H](O)[C@H]8O)[C@@H](O)[C@H](O)[C@H]7O)C(C)(C)C6CC[C@@]5(C)[C@]3(C)C[C@H]4O)OC[C@@H](O)[C@@H]2O)[C@H](O)[C@H](O[C@@H]2OC[C@](O)(CO)[C@H]2O)[C@H]1O[C@@H]1OC[C@H](O)[C@H](O[C@@H]2OC[C@@H](O)[C@H](O)[C@H]2O)[C@H]1O (stereo not given in full)	–	inactive: 4.71% [at 6.55 µM]
CC1=C(C)C(=O)OC(C(C)C2CCC3C4CC=C5CC(OC6OC(COC7OC(CO)C(O)C(O)C7O)C(O)C(O)C6O)CC(O)C5(C)C4CCC23C)C1 (stereo not given)	–	inactive: 17.5% [at 25.3 µM]
Nc1ccc(/C=C/c2ccc(N)cc2S(=O)(=O)O)c(S(=O)(=O)O)c1	–	inactive: 0.128% [at 0.462 µM]
CN(C)CC(c1ccc(O)cc1)C1(O)CCCCC1 (stereo not given)	inconclusive: 22.4 µM [rising, single point]	–

system: Tov112D; assay: as above; conditions: Gynecologic cancer cell panel viability, ATPlite luminescence, 48 h; series mostly up to 57.5 µM; activity change, negative = cytotoxicity: at the top concentration
Procedure, shortened: as §1

Structure (SMILES)	activity change, negative = cytotoxicity
CN1CCc2nc(C(=O)N[C@@H]3C[C@@H](C(=O)N(C)C)CC[C@@H]3NC(=O)C(=O)Nc3ccc(Cl)cn3)sc2C1	inactive: -2.08%
C/C(CO)=C1/CCC23COC(C2)C(O)(C(=O)O)CCC13 (stereo not given)	inactive: -1.29%
CC(C)c1ccc2c(c1)C(=O)CC1[C@@](C)(C(=O)O)CCC[C@]21C (stereo not given in full)	inactive: -3.26% [at 38.5 µM]
O=c1[nH]c2cc(C(F)(F)F)c(N3CCOCC3)cc2n(CP(=O)(O)O)c1=O	inactive: 13.2%

system: not listed separately; assay: Drug repurposing screens with cells derived from glioblastoma tumor samples (AID 1345199); conditions: GBM patient neurospheres viability, ATP luminescence, 48 h; Potency: tumour line A unless noted; activity, negative = cell killing: at 46 µM (top of the series), tumour line A unless noted; note: nearly all actives have a fitted effect of over 40% in size
Procedure, shortened: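 Primary testing used CD133+ neurospheres from four GBM patients, seven concentrations, 48 h exposure and ATP-based viability; confirmation added three slower-growing patient lines.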

Structure (SMILES)	Potency	activity, negative = cell killing
O=C(OCCOCCO)c1ccccc1Nc1cccc(C(F)(F)F)c1	inconclusive: 7.08 µM [inhibitor, single point]	–
O=c1[nH]c2cc(C(F)(F)F)c(N3CCOCC3)cc2n(CP(=O)(O)O)c1=O	inconclusive: 39.8 µM [inhibitor, partial curve, poor fit]	–
Nc1ccc(/C=C/c2ccc(N)cc2S(=O)(=O)O)c(S(=O)(=O)O)c1	–	inactive: -15.5%
